# Measurements as given in PubChem BioAssay AID1159614 (National Center for Advancing Translational Sciences (NCATS), 2016).
# Hit rate of the full screen: of about 45,000 compounds, about 65 (0.1%) were called active. Calls follow the shape of the dose curve; as a rule, active = well fitted activation curve with a large enough effect; inconclusive = small, poorly fitted or top-dose-only effect; inactive = no such curve, though single readings can be large or run the other way. This is one part of the list.
# Molecular target: Galactocerebrosidase (Homo sapiens) (UniProt P54803)
# Sequence of UniProt P54803 (P54803 whole entry, looked up): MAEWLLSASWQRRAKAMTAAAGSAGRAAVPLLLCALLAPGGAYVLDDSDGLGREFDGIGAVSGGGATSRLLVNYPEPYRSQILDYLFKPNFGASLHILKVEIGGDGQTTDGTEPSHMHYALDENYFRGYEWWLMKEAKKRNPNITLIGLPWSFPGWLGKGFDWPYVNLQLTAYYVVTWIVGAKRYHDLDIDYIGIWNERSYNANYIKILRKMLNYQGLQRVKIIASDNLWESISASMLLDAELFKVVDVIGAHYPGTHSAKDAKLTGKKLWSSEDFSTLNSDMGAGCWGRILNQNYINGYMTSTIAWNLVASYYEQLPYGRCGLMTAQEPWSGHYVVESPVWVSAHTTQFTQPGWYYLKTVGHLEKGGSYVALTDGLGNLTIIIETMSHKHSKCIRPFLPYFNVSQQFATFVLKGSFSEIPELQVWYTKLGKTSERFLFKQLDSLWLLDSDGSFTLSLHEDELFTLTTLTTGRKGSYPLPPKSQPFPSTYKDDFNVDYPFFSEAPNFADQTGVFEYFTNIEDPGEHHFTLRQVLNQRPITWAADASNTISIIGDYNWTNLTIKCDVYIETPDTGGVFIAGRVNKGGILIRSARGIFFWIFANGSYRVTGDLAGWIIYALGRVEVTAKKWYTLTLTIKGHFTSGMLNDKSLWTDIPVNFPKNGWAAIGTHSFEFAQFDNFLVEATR
# Assay: A Novel Cell-Based Assay to Identify Small Molecules for B -Galactocerebrosidase; also: 0% is about no effect; nearly all actives have a fitted effect of over 65% in size
# Details: 145M-Twi-hGALC-G270D cells (Twitcher mouse brain line with human GALC G270D), HMU-beta-Gal fluorescence, 48 h; series mostly up to 57.5 µM; activation: at the top concentration
# How it was run: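 Fluorogenic HMU-b-Gal hydrolysis (0.1 mM final, pH 5.2 citrate-phosphate with 1 mg/mL sodium taurocholate; carbonate stop buffer) measures mutant GALC activity after compound treatment of live 145M-Twi Twitcher brain cells stably carrying human GALC-G270D, with wild-type GALC line alongside; activation sought.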
row,Compound,activation
1,c1ccc2c(CC3=NCCN3)cccc2c1,inactive: -15.3%
2,CCC(C)NC(=O)c1sc2nc(C)c(C(=O)Nc3ccc(C)cc3C)c(-c3ccc(Cl)cc3)c2c1N (stereo not drawn),inactive: -7.68%
3,O=C1COc2cc(S(=O)(=O)CCC(=O)N3CCN(c4cccc(Cl)c4)CC3)c(Cl)cc2N1,inactive: -5.7%
4,CCOc1ccc(CNC(=O)Cn2nc(C)c3nn(-c4ccc(Cl)cc4)c(C)c3c2=O)cc1OC,inactive: -6.85%
5,COC(=O)c1cnn(-c2ccc(C(=O)Nc3ccc(C(C)=O)cc3)cc2)c1N,inactive: -8.97%
6,O=C(CN1CCSc2ccccc21)N1CCN(c2cccc(Cl)c2)CC1,inactive: -31.1%
7,Cc1ccc(-n2ncc3c(NC4CCCCC4)ncnc32)cc1,inactive: -5.78%
8,Cc1ccc(Cc2nc3ccccc3nc2SCC(=O)Nc2cccc(C(F)(F)F)c2)cc1,inactive: -14.6%
9,CC(C)(C)c1ccc(S(=O)(=O)NCc2nc3cccnc3n2Cc2ccccc2Cl)cc1,inactive: -2.74%
10,O=C(CSc1nc(-c2ccccc2)[nH]c1-c1ccccc1)Nc1ccc2c(c1)OCCO2,inactive: -5.41%
11,Cc1nc(N2CCCC2)c2c(C(=O)N3CCN(c4cccc(C)c4C)CC3)c(C)oc2n1,inactive: -11%
12,CCC(=O)Nc1ccc2nc(SCc3ccc(C)cc3)sc2c1,inactive: -16%
13,CC(C)c1ccccc1NC(=O)CN1C(=O)c2cccc3cccc1c23,inactive: -13.5%
14,CC(C)c1cc(-c2nc(-c3ccccc3)no2)n[nH]1,inactive: -19.7%
15,COc1ccc(S(=O)(=O)N2CCN(Cc3ccc4c(c3)OCO4)CC2)cc1OC,inactive: -1.12%
16,CN(CC(=O)Nc1ccccc1Cl)S(=O)(=O)c1ccc(C(=O)N2CCOCC2)s1,inactive: -19.1%
17,CCCSCCCNC(=O)c1ccc2c(c1)nc1n2CCCCC1,inactive: -7.29%
18,Cc1ccc(Nc2cc(C)c(C#N)c3nc4ccccc4n23)cc1Cl,inactive: -11.1%
19,O=C(Cc1ccccc1)N(Cc1cccnc1)c1nc2ccc(F)cc2s1,inactive: -11.1%
20,O=C(CSc1ccccc1)NCc1ccc2c(c1)CCN2C(=O)c1ccc(F)cc1,inactive: -17.8%
21,COCCNC(=O)c1nn(-c2ccc(Cl)cc2)nc1CO,inactive: -11.7%
22,Cn1cnc(S(=O)(=O)N2CCC(C(=O)NCc3ccc(Cl)cc3)CC2)c1,inactive: -7.1%
23,COc1ccc(CNC(=O)c2cc3c(=O)n(C)c4ccccc4c3n2C)cc1,inactive: -4.3%
24,O=C(COc1ccccc1)Nc1nnc(S(=O)(=O)N2CCCCCC2)s1,inactive: -8.95%
25,Cc1ccccc1-c1nnc(C2CCN(S(=O)(=O)c3ccc(Cl)cc3)CC2)o1,inactive: -7.87%

row,Compound,activation
1,CCc1ccc(CNC(=O)CCCN2C(=O)c3cccnc3Oc3ccc(Cl)cc32)cc1,inactive: -5%
2,CCOc1cc(C2CC(=O)Nc3nc(SCc4ccccc4)[nH]c(=O)c32)ccc1O (stereo not drawn),inactive: -6.75%
3,CCOC(=O)c1ccc(N2C(=O)c3[nH]nc(-c4ccc(OCC)cc4)c3C2c2ccc(OC)cc2OC)cc1 (stereo not drawn),inactive: 5.84%
4,CCc1ccc2oc(-c3ccc(NC(=O)c4cc(OC)c(OC)c(OC)c4)cc3)nc2c1,inactive: -28.4%
5,O=C(Nc1cccc2cccnc12)c1ccc(F)cc1,inactive: -17.6%
6,CCCN(CCC)CCCNC(=O)Cn1cnc2onc(-c3ccc(F)cc3)c2c1=O,inactive: -27.8%
7,O=C(Cn1cnc2c(nc3n2CCCCC3)c1=O)Nc1ccc(F)cc1,inactive: -25.5%
8,O=C(CCCn1c(=O)[nH]c2ccccc2c1=O)NCc1ccccc1Cl,inactive: 0.935%
9,CCc1nn(CC(=O)NCCCOC)c(=O)c2cc3occc3n12,inactive: -5.42%
10,COc1cc(-c2cc(OC)c3c(C)oc(C)c3c(=O)c2)ccc1OC(=O)c1ccccc1C,inactive: -0.896%
11,COC(=O)C(C)Sc1nnc2cc(C)c3cc(C)cc(C)c3n12 (stereo not drawn),inactive: -8.42%
12,COc1ccccc1NC(=O)Cn1c(=O)n(Cc2ccco2)c(=O)c2oc3ccccc3c21,inactive: -10.4%
13,Cc1ccc2c(=O)cc(C(=O)Nc3c(C)n(C)n(-c4ccccc4)c3=O)oc2c1C,inactive: -19.7%
14,CCC(=O)NC1CC(=O)N(c2ccc3c(c2)OCCO3)C1 (stereo not drawn),inactive: -8.11%
15,O=C(CN1C(=O)C(c2ccc(F)cc2)=NC12CCCCCC2)Nc1ccc(F)c(Cl)c1,inactive: 6.47%
16,Cc1cc(C)c2c(-n3cccc3)c(C(=O)NCCc3ccc(Cl)cc3)sc2n1,inactive: -1.96%
17,CN(C(=O)c1nc(-c2cccc(F)c2)n2c1CCCCC2)c1ccccc1F,inactive: -4.73%
18,COc1ccc(S(=O)(=O)N2c3ccc(Cl)cc3[C@@](O)(c3ccccc3Cl)[C@H]2C(=O)N2CCC[C@@H]2C(N)=O)cc1OC,inactive: -3.18%
19,COc1cc(C2c3c(-c4ccccc4O)n[nH]c3C(=O)N2Cc2ccncc2)ccc1O (stereo not drawn),inactive: -8.46%
20,Cc1nc2ccc(S(=O)(=O)CCC(=O)Nc3ccc(F)cc3C)cc2s1,inactive: -10.2%
21,COc1cc(Cl)c(NC(=O)C2CCN(S(=O)(=O)c3c(C)noc3/C=C/c3ccccc3F)CC2)c(OC)c1,inactive: 2.63%
22,CC(C)c1ccc(NC(=O)CCCc2nc(-c3ccc(Cl)cc3)no2)cc1,inactive: -13.6%
23,CCc1ccc(NC(=O)CSc2ccc3nnc(CCNS(=O)(=O)c4ccc(OC)cc4)n3n2)cc1,inactive: -16.8%
24,Cc1cc(OCCCSc2nc(-c3ccc(C(C)(C)C)cc3)nc3cc(=O)[nH]n23)ccc1Cl,inactive: -4.92%
25,Cc1ccccc1NC(=O)c1ccccc1NC(=O)c1ccccc1Cl,inactive: -12%

row,Compound,activation
1,CCc1ccc(NC(=O)C2CCN(c3cc(C)nc4c(-c5ccc(Cl)cc5)c(C)nn34)CC2)cc1,inactive: -7.15%
2,CCOC(=O)c1cc(-c2ccc(C)cc2)nn1Cc1ccccc1,inactive: -22.8%
3,COc1ccc(NS(=O)(=O)c2ccc(NC(=O)N3CCCC3)cc2)cc1,inactive: -12.9%
4,Cc1ccc(-c2cn3c(n2)sc2cc(C(=O)NCCCc4ccccc4)ccc23)cc1,inactive: -5.36%
5,Cc1ccc(C2=Nc3ccccc3NC(c3ccncc3)=N2)cc1,inactive: -19.7%
6,CCOc1ccc(-c2nc3c(C#N)c[nH]n3c2NC2CCCC2)cc1,inactive: 18.7%
7,CNS(=O)(=O)c1cn(CC(=O)Nc2ccc(C)cc2C)cc1S(=O)(=O)NC,inactive: -11.3%
8,COc1ccc(Nc2cc(C)nc(-n3nc(C)cc3C)n2)cc1Cl,inactive: -22.9%
9,COc1ccc(CCNC(=O)CCc2c(C)nc3c(c(C)nn3-c3ccc(C)cc3)c2C)c(OC)c1,inactive: -18.1%
10,CCc1ccccc1NC(=O)C1CCCN(S(=O)(=O)c2cccc3nsnc23)C1 (stereo not drawn),inactive: -4.59%
11,Cc1ccccc1-c1nc(CS(=O)(=O)CC(=O)NC(C)c2ccccc2)c(C)o1 (stereo not drawn),inactive: -2.22%
12,CCN(CCCNC(=O)c1cc2c(=O)n(CC)c3ccccc3c2s1)c1cccc(C)c1,inactive: 6.41%
13,COc1ccc2c(c1)c(=O)c(S(=O)(=O)c1ccc(C)c(C)c1)cn2CC(=O)Nc1ccccc1,inactive: -7.16%
14,CCc1ccc(N2CCn3c2nc2c3c(=O)n(Cc3ccc(F)cc3)c(=O)n2C)cc1,inactive: 3.59%
15,Cc1ccc(-n2c3c(c(=O)[nH]c2=O)C(NC(=O)c2ccccc2F)(C(F)(F)F)C(=O)N3)cc1C (stereo not drawn),inactive: -13.4%
16,Cc1ccc(CNc2ccc(-c3nc(-c4ccco4)no3)cc2[N+](=O)[O-])cc1,inactive: -11.6%
17,CCN(CC)CC(=O)Nc1c(C)cccc1C,inactive: 0.144%
18,Cc1ccc(S(=O)(=O)c2nc(-c3ccccc3)oc2N2CCN(c3ccccc3)CC2)cc1,inactive: -12.4%
19,COc1ccc(C(=O)Nc2ccc(-n3nncc3-c3ccc(OC)c(OC)c3)cc2)cc1,inactive: -8.72%
20,Cc1ccc(-c2cc(C(=O)O)n(Cc3ccccc3)n2)cc1,inactive: -13.4%
21,COc1ccc(Cl)cc1NC(=O)CN(c1cc(C)cc(C)c1)S(=O)(=O)c1c(C)n[nH]c1C,inactive: -10.9%
22,CCc1ccc(NC(=O)c2cc3c(=O)n(Cc4cccs4)ccc3nc2C)cc1,inactive: -14.7%
23,O=C(Nc1cc(F)ccc1F)C1COc2ccccc2C1 (stereo not drawn),inactive: -26.7%
24,COc1cc(-c2noc(C3CC(=O)N(c4ccc5c(c4)OCCO5)C3)n2)cc(OC)c1OC (stereo not drawn),inactive: -15.6%
25,CCCOc1ccc(-c2nc3ccccc3c(=O)o2)cc1,inactive: -3.15%

row,Compound,activation
1,CC(C)(C)c1ccc(-c2nc3cc(NC(=O)c4cc5ccccc5o4)ccc3o2)cc1,inactive: 5.8%
2,CCc1cccc(N(C)C(N)=Nc2cccc3ccccc23)c1,inactive: 4.05%
3,O=c1cc(-c2ccccc2)nc(SCc2nc(-c3ccc(C(F)(F)F)cc3)no2)[nH]1,inactive: -2.74%
4,COc1ccc(CNC(=O)CCc2cn(Cc3cc(C)ccc3C)c3ccccc23)cc1OC,inactive: -27.5%
5,O=C(Cn1ccn(-c2cccc(Cl)c2)c(=O)c1=O)NCCc1ccccc1,inactive: 4.54%
6,CC(C)c1ccc(NC(=O)C2CCN(S(=O)(=O)c3cccc4nsnc34)CC2)cc1,inactive: -12.2%
7,Cc1c(C(=O)Nc2nc(-c3ccc(F)cc3)ns2)oc2ccc(Br)cc12,inactive: -2.22%
8,CC(=O)NS(=O)(=O)c1ccc(N)cc1,inactive: -10.4%
9,COc1ccc(NC(=O)NC2COc3ccccc3C2)c(OC)c1 (stereo not drawn),inactive: -0.917%
10,O=S(=O)(NCC(c1ccco1)S(=O)(=O)c1ccccc1)c1ccccc1 (stereo not drawn),inactive: -15.6%
11,Cc1cn([C@H]2C=C[C@@H](CO)O2)c(=O)[nH]c1=O,inactive: -9.84%
12,Cc1c(C(=O)Nc2ccc(F)c(F)c2)oc2ccc(S(=O)(=O)N3CCCCC3)cc12,inactive: -14%
13,COc1ccccc1CNC(=O)CCCCn1c(=O)c2ccccc2n(Cc2c(C)cc(C)cc2C)c1=O,inactive: -22.6%
14,COc1ccc(CNC(=O)Cn2c(=O)oc3cc(S(=O)(=O)N4CCCCCC4)ccc32)cc1,inactive: -15.7%
15,COc1ccc(N2CCN(C(=O)CCc3c(C)nc4c(-c5ccccc5)c(C)nn4c3C)CC2)cc1,inactive: -21.4%
16,COc1ccc2c(c1)cc(CNc1ccc(OC)c(OC)c1)c(=O)n2CC(=O)Nc1ccc(F)cc1,inactive: -9.73%
17,CN(CC(=O)Nc1cccc(Cl)c1)S(=O)(=O)c1ccc2[nH]c3c(c2c1)CCCC3,inactive: -17.2%
18,CC1=C(C(N)=O)C(c2ccc(C(C)C)cc2)n2nc(SCc3ccccc3)nc2N1 (stereo not drawn),inactive: -6.56%
19,COc1ccc(CCNC(=O)c2ccc3c(c2)N(Cc2ccc(C)cc2)CCS3)cc1OC,inactive: -10.1%
20,CCOc1ccc(S(=O)(=O)N(CC(=O)Nc2cccnc2)c2ccccc2)cc1,inactive: -0.722%
21,Cc1cc(N2CCN(C)CC2)nc2ccc(NC(=O)Nc3ccccc3Br)cc12,inactive: 3.82%
22,Cc1cc(C)n2nc(SCC(=O)Nc3cc(Cl)ccc3C)nc2n1,inactive: -6.8%
23,COC(=O)c1ccc(NC(=O)CCc2c(C)nc3c(c(C)nn3-c3ccc(C)cc3)c2C)cc1,inactive: -11.7%
